# This is one part of the list.
# B1: LecB LY19 (Pseudomonas aeruginosa) (protein)
# chain: MATQGVFTLPANTQFGVTAFANSAGTQTVNVQVNNETVATFTGQSTNNGIIGSKVLNSGGGGKVQILVSVNGRSSDLVSAQVILANELNFALVGSEDSTDNDYNDAVVVINWPLG
# What was measured:
# Assay in all cases: glycan array binding signal (z-score within array); higher = stronger binding
# Conditions in all cases: glycan notation: IUPAC condensed, linker removed
# Fuc(a1-2)Gal = target: Fuc(a1-2)Gal
# Outline: (§1)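 From the Consortium for Functional Glycomics database, 3228 arrays were curated, keeping only those whose protein sequence was available. Binding is given as a within-array Z-score averaged across arrays sharing a protein sequence and across linkers. Negative Z-scores can be read as non-binding.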
# Fuc(a1-2)Gal(b1-3)GalNAc = target: Fuc(a1-2)Gal(b1-3)GalNAc
# Outline: as §1
# [1] = target: Fuc(a1-2)Gal(b1-3)GalNAc(a1-3)[Fuc(a1-2)]Gal(b1-4)Glc
# Outline: as §1
# [2] = target: Fuc(a1-2)Gal(b1-3)GalNAc(a1-3)[Fuc(a1-2)]Gal(b1-4)GlcNAc
# Outline: as §1
# [3] = target: Fuc(a1-2)Gal(b1-3)GalNAc(b1-3)Gal
# Outline: as §1
# [4] = target: Fuc(a1-2)Gal(b1-3)GalNAc(b1-3)Gal(a1-4)Gal(b1-4)Glc
# Outline: as §1
# [5] = target: Fuc(a1-2)Gal(b1-3)GalNAc(b1-4)[Neu5Ac(a2-3)]Gal(b1-4)Glc
# Outline: as §1
# Fuc(a1-2)Gal(b1-3)GlcNAc = target: Fuc(a1-2)Gal(b1-3)GlcNAc
# Outline: as §1
# [6] = target: Fuc(a1-2)Gal(b1-3)GlcNAc(b1-2)Man(a1-3)[Fuc(a1-2)Gal(b1-3)GlcNAc(b1-2)Man(a1-6)]Man(b1-4)GlcNAc(b1-4)GlcNAc
# Outline: as §1
# [7] = target: Fuc(a1-2)Gal(b1-3)GlcNAc(b1-2)Man(a1-3)[Fuc(a1-2)Gal(b1-3)GlcNAc(b1-2)Man(a1-6)]Man(b1-4)GlcNAc(b1-4)[Fuc(a1-6)]GlcNAc
# Outline: as §1
# [8] = target: Fuc(a1-2)Gal(b1-3)GlcNAc(b1-3)Gal(b1-4)Glc
# Outline: as §1
# [9] = target: Fuc(a1-2)Gal(b1-3)GlcNAc(b1-3)GalNAc
# Outline: as §1
# [10] = target: Fuc(a1-2)Gal(b1-3)GlcNAc(b1-3)[Fuc(a1-2)Gal(b1-3)GlcNAc(b1-6)]GalNAc
# Outline: as §1
# [11] = target: Fuc(a1-2)Gal(b1-3)GlcNAc(b1-3)[Gal(b1-4)GlcNAc(b1-6)]Gal(b1-4)Glc
# Outline: as §1
# [12] = target: Fuc(a1-2)Gal(b1-3)GlcNAc(b1-3)[Neu5Ac(a2-6)Gal(b1-4)GlcNAc(b1-6)]Gal(b1-4)Glc
# Outline: as §1
# [13] = target: Fuc(a1-2)Gal(b1-3)GlcNAc6S
# Outline: as §1
# [14] = target: Fuc(a1-2)Gal(b1-3)[Fuc(a1-4)]GlcNAc
# Outline: as §1
# [15] = target: Fuc(a1-2)Gal(b1-3)[Fuc(a1-4)]GlcNAc(b1-2)Man(a1-3)[Fuc(a1-2)Gal(b1-3)[Fuc(a1-4)]GlcNAc(b1-2)Man(a1-3)]Man(b1-4)GlcNAc(b1-4)GlcNAc
# Outline: as §1
# [16] = target: Fuc(a1-2)Gal(b1-3)[Fuc(a1-4)]GlcNAc(b1-2)Man(a1-3)[Fuc(a1-2)Gal(b1-3)[Fuc(a1-4)]GlcNAc(b1-2)Man(a1-6)]Man(b1-4)GlcNAc(b1-4)[Fuc(a1-6)]GlcNAc(b1-4)[Fuc(a1-6)]GlcNAc
# Outline: as §1
# [17] = target: Fuc(a1-2)Gal(b1-3)[Fuc(a1-4)]GlcNAc(b1-3)[Fuc(a1-3)[Gal(b1-4)]GlcNAc(b1-6)]Gal(b1-4)Glc
# Outline: as §1
# [18] = target: Fuc(a1-2)Gal(b1-3)[Fuc(a1-4)]GlcNAc(b1-3)[Gal(b1-4)GlcNAc(b1-6)]Gal(b1-4)Glc
# Outline: as §1
# Fuc(a1-2)Gal(b1-4)Glc = target: Fuc(a1-2)Gal(b1-4)Glc
# Outline: as §1
# Fuc(a1-2)Gal(b1-4)Glc6S = target: Fuc(a1-2)Gal(b1-4)Glc6S
# Outline: as §1
# Fuc(a1-2)Gal(b1-4)GlcNAc = target: Fuc(a1-2)Gal(b1-4)GlcNAc
# Outline: as §1
# [19] = target: Fuc(a1-2)Gal(b1-4)GlcNAc(b1-2)Man
# Outline: as §1
# [20] = target: Fuc(a1-2)Gal(b1-4)GlcNAc(b1-2)Man(a1-3)[Fuc(a1-2)Gal(b1-4)GlcNAc(b1-2)Man(a1-6)]Man(b1-4)GlcNAc(b1-4)GlcNAc
# Outline: as §1
# [21] = target: Fuc(a1-2)Gal(b1-4)GlcNAc(b1-2)Man(a1-3)[Fuc(a1-2)Gal(b1-4)GlcNAc(b1-2)Man(a1-6)]Man(b1-4)GlcNAc(b1-4)[Fuc(a1-6)]GlcNAc
# Outline: as §1
# [22] = target: Fuc(a1-2)Gal(b1-4)GlcNAc(b1-2)[Fuc(a1-2)Gal(b1-4)GlcNAc(b1-4)]Man(a1-3)[Fuc(a1-2)Gal(b1-4)GlcNAc(b1-2)Man(a1-6)]Man(b1-4)GlcNAc(b1-4)GlcNAc
# Outline: as §1
# [23] = target: Fuc(a1-2)Gal(b1-4)GlcNAc(b1-3)Gal(b1-4)GlcNAc
# Outline: as §1
# [24] = target: Fuc(a1-2)Gal(b1-4)GlcNAc(b1-3)Gal(b1-4)GlcNAc(b1-2)Man(a1-3)[Fuc(a1-2)Gal(b1-4)GlcNAc(b1-3)Gal(b1-4)GlcNAc(b1-2)Man(a1-6)]Man(b1-4)GlcNAc(b1-4)GlcNAc
# Outline: as §1
binder,measurement,setting,value
B1,glycan array binding signal (z-score),Fuc(a1-2)Gal,2.02
same,glycan array binding signal (z-score),Fuc(a1-2)Gal(b1-3)GalNAc,0.684
same,glycan array binding signal (z-score),[1],1.31
same,glycan array binding signal (z-score),[2],0.778
same,glycan array binding signal (z-score),[3],-0.059
same,glycan array binding signal (z-score),[4],1.77
same,glycan array binding signal (z-score),[5],0.344
same,glycan array binding signal (z-score),Fuc(a1-2)Gal(b1-3)GlcNAc,1.63
same,glycan array binding signal (z-score),[6],0.156
same,glycan array binding signal (z-score),[7],0.84
same,glycan array binding signal (z-score),[8],1.85
same,glycan array binding signal (z-score),[9],1.49
same,glycan array binding signal (z-score),[10],0.059
same,glycan array binding signal (z-score),[11],0.621
same,glycan array binding signal (z-score),[12],0.085
same,glycan array binding signal (z-score),[13],1.31
same,glycan array binding signal (z-score),[14],1.39
same,glycan array binding signal (z-score),[15],0.406
same,glycan array binding signal (z-score),[16],2.4
same,glycan array binding signal (z-score),[17],1.32
same,glycan array binding signal (z-score),[18],1.21
same,glycan array binding signal (z-score),Fuc(a1-2)Gal(b1-4)Glc,1.5
same,glycan array binding signal (z-score),Fuc(a1-2)Gal(b1-4)Glc6S,1.37
same,glycan array binding signal (z-score),Fuc(a1-2)Gal(b1-4)GlcNAc,1.54
same,glycan array binding signal (z-score),[19],-0.476
same,glycan array binding signal (z-score),[20],1.84
same,glycan array binding signal (z-score),[21],1.24
same,glycan array binding signal (z-score),[22],1.72
same,glycan array binding signal (z-score),[23],3.29
same,glycan array binding signal (z-score),[24],-0.396
